# Data from publication PMC6919601, “Identification of Plasmodium dipeptidyl aminopeptidase allosteric inhibitors by high throughput screening” (PLoS ONE, 2019).
# Where “and” joins values, the source holds several entries; their conditions need not be identical. Equal entries are not always repeated. Among all 110,000 compounds or so, about 230 (0.21%) showed an effect of 50% or more. The list shows a part of the results.
# Molecular target: DPAP1 (Plasmodium falciparum, UniProt Q8IIJ9)
# Experiment: primary screen, percent inhibition; read by cleavage of a fluorogenic dipeptide substrate; higher = more effect of the substance
# Set-up: species or system P. falciparum D10 trophozoite lysates; single well
# 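Note: 30 min substrate incubation versus DMSO and 10 µM JCP410 controls.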
# Sequence of DPAP1 (Q8IIJ9 whole entry, looked up): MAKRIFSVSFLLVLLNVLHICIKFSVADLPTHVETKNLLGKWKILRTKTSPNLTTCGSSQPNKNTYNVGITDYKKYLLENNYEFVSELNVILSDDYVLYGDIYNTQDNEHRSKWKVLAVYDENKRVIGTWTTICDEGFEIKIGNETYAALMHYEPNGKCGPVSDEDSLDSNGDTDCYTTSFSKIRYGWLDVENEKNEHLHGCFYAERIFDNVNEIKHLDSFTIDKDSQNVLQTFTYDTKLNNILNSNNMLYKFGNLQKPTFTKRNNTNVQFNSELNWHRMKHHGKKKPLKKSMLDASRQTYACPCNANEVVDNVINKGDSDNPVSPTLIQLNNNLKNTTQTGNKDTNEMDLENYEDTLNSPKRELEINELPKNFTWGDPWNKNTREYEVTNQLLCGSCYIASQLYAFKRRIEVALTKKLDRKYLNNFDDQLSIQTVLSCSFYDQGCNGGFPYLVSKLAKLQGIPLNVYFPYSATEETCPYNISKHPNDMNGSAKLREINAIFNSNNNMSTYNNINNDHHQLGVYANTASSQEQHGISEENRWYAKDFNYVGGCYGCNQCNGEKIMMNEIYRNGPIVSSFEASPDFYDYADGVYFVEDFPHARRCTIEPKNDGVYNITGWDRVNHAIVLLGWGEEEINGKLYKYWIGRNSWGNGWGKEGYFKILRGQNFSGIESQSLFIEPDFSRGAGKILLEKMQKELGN
row,SMILES,% Inhibition @ 10 uM
1,O=C(Cc1c(C(=O)O)[nH]c2ccc(Cl)cc12)NCc1ccc2c(c1)OCO2,1.86%
2,COc1ccccc1/C=C1\SC(=O)N(Cc2ccc(F)cc2)C1=O,3.17%
3,O=C(O)/C(=C/c1c[nH]c2ccccc12)NC(=O)c1ccccc1,0.147%
4,O=S(=O)(c1cccc(Cl)c1)c1nnn2c1nc(NC1CCCCC1)c1sccc12,-5.57%
5,COc1cccc(CS(=O)(=O)C2C(C)CC(C)(C)CC2O)c1 (stereo not drawn),-1.98%
6,O=C(COc1ccc(Cl)cc1Cl)Nc1ccc(Cl)c(Cl)c1,-0.253%
7,COc1ccc(-c2nc(CS(=O)CC(=O)O)c(C)o2)cc1 (stereo not drawn),1.42%
8,CC(Nc1nc(Nc2cccc(C(F)(F)F)c2)nc(N2CCOCC2)n1)c1ccccc1 (stereo not drawn),3.05%
9,Cc1ccc(CNC(=O)NCc2cccn2Cc2ccccc2)cc1,-2.23%
10,CCSCCOC(=O)C1=C(C)NC(=O)CC1c1ccccc1C (stereo not drawn),-2.87%
11,CCOC(=O)c1sc2nc(SCC(=O)NCc3ccco3)n(Cc3ccccc3)c(=O)c2c1C,-2.56%
12,Cn1c2ccccc2c2nnc(SCc3ccccc3)nc21,-3.64%
13,CCOC(=O)N1CCC(NC(=O)Cc2cn(C)c3ccccc23)CC1,-2.41%
14,COc1ccc(N2C(=O)CC(N3CCN(c4cccc(C(F)(F)F)c4)CC3)C2=O)cc1 (stereo not drawn),4.74%
15,c1ccc(-c2cc3ccccc3[nH]2)cc1,-5.01%
16,O=C(CCCOc1ccc(Cl)cc1)NCCc1nc2ccccc2[nH]1,0.487%
17,COc1ccc(C=C2C(=O)c3ccccc3C2=O)cc1OC,-2.51%
18,Cc1cc(C)cc(NC(=O)c2cccs2)c1,-3.26%
19,COc1ccc(NC(=O)Cn2cnc3c2c(=O)n(C)c(=O)n3C)cc1OC,-5.27%
20,O=C(O)Cn1nnc(-c2ccccc2F)n1,-7.18%
21,COC(=O)C1=C(C)N(C)C(=O)NC1c1ccc(Cl)c(Cl)c1 (stereo not drawn),1.27%
22,CC1(C)CC(=O)C2=C(C1)N(c1nc[nH]n1)C(N)=C(C#N)C2c1ccc(Br)cc1 (stereo not drawn),-2.77%
23,COCCN1C(=O)C(O)=C(C(=O)c2ccccc2)C1c1ccc(Cl)cc1 (stereo not drawn),2.65%
24,CSc1nc(Oc2ccc(C)c(C)c2)cc(-n2cncn2)n1,-5.13%
25,CC1CCN(c2ccc3nnc(CCC(=O)NCC(C)c4ccccc4)n3n2)CC1 (stereo not drawn),-5.85%
26,CC(C)N1CCc2nc3sc(C(N)=O)c(N)c3cc2C1,2.34%

row,SMILES,% Inhibition @ 10 uM
1,CCc1ccccc1NC(=O)CN(c1cccc(OC)c1)S(C)(=O)=O,2.36% and -3.71%
2,Cc1ccc(/C=C2\C(=N)N3N=C(N4CCCC4)SC3=NC2=O)o1,-1.66%
3,Nc1cccc2c1C(=O)c1c(N)cccc1C2=O,-2.42%
4,CCOc1ncnc2sc3c(c12)CCC(C)C3 (stereo not drawn),0.138%
5,COc1ccc(NC(=O)c2ccccc2N)c(OC)c1,3.24%
6,Cc1ccc2c(CNCCC3=CCCCC3)c(C(=O)O)[nH]c2c1,-0.397%
7,Cc1ccc(C(C)C)c(OCC(O)CN2CCC(C)CC2)c1 (stereo not drawn),2.86%
8,CCOC(=O)c1cnc2c(OC)cccc2c1N1CCC(C)CC1,1.08%
9,O=c1c2ccccc2nc(C(Cl)(Cl)Cl)n1Cc1ccccc1,-3.37%
10,COc1ccc(C)cc1NC(=O)Cn1nc(C(F)(F)F)cc1C1CC1,2.08%
11,CC(=O)c1cc2c(cc1NC(=O)c1ccc(C(C)(C)C)cc1)OCO2,-0.318%
12,CC1CCN(S(=O)(=O)c2ccc3ncc(C(=O)NCCCN4CCOCC4)c(O)c3c2)CC1,-8.86%
13,CSc1nc(-c2ccccc2)nc(NC(=O)C(C)C)c1C(C)=O,-7.09%
14,C=CCN1C(=O)c2ccccc2C1(O)c1ccc(C)cc1 (stereo not drawn),-4.21%
15,COc1ccc(C2(CC(=O)O)CCOC(C)(C)C2)cc1 (stereo not drawn),0.0265%
16,O=C(Nc1ncc(Cc2ccccc2)s1)C(c1ccccc1)c1ccccc1,-0.424%
17,CCn1c(C(=O)O)c(CNCc2ccc(Cl)cc2)c2ccccc21,-5.05%
18,O=C(c1ccccc1F)N1CCN(c2cccc(Cl)c2)CC1,-7.02%
19,Cc1ccc(C(=O)Nc2cc(Cl)cc(Cl)c2)cc1,-0.856%
20,CN(C)CCNC(=O)Cn1cnc2onc(-c3ccc(F)cc3)c2c1=O,-4.94%
21,Cc1ccc(-c2cc(C(=O)N3CCN(Cc4ccc(F)cc4)CC3)[nH]n2)cc1,-1.3%
22,O=C(O)/C=C/C(=O)Nc1ccccc1-c1ccccc1NC(=O)/C=C/C(=O)O,-0.999%
23,CC1CN(c2ccc([N+](=O)[O-])c(N)c2)CCN1 (stereo not drawn),-1.74%
24,Cc1nc2nc(-c3ccc(F)cc3)cn2nc1C,-3.04%
25,CCS(=O)(=O)N1CCCC(C(=O)NCCCN(C)Cc2ccccc2)C1 (stereo not drawn),1.62%
